Out of some 52,000 compounds screened, about 4,300 (8.3%) were called active. No stated cut-off is given here; in the data, active means survival mostly below about 52% (no sharp cut-off); inactive means mostly above about 56%. This is one part of the list.

The test relates to DeltatarO mutant. Put plainly: S. aureus survival, RN4220 and DeltatarO strains – OD600, teichoic acid synthesis inhibitors, primary screen (AID 463173). Particulars: S. aureus RN4220 wild type/DeltatarO growth, OD600, 18 h, active compounds read low, screened at 18.75 µg/mL (by protocol).
Consider `O=C(Nc1ccccc1F)c1nc(SCc2ccccc2F)ncc1Cl`, for which the survival is inactive: 73%.
With `COc1cccc(CNC(=O)c2ccc3c(c2)N(Cc2ccc(F)cc2Cl)C(=O)c2ccccc2S3)c1` the figure was active: 25%.
Turning to `COc1ccc(-c2nn(-c3ccc(F)cc3)c3c2cnc2ccc(F)cc23)cc1OC`, the survival was inactive: 76%.
For `Cc1ccc(NC(=O)CCCn2c(=O)c3cccn3c3ccccc32)cc1Cl`, the survival was inactive: 68%.
For `CCCc1nn2c(=O)cc(COC(=O)C3CCCCC3)nc2s1`, the survival is inactive: 81%.
On to `COc1ccc(OCC(=O)Nc2ccc(Cl)c(-c3nc4ncccc4o3)c2)cc1`, for which the survival was inactive: 155%.
As to `COC(=O)c1cc2sc(Cl)cc2n1CC(=O)Nc1cc(OC)cc(OC)c1`, the survival was inactive: 84%.
As for `O=C1CN(C(=O)COc2ccccc2)C(c2ccc(F)cc2)c2cc(Br)ccc2N1` (centres undefined), the survival was active: 33%.
On to `N#CCCn1nc(-c2ccccc2)c2ccccc2c1=O`, for which the survival was inactive: 67%.
As to `COC(=O)c1ccccc1NC(=O)c1oc2ccc3c(c2c1C)C(=O)CC(C)(C)O3`, the survival was inactive: 80%.
As to `O=C(NCc1nc2ccccc2n1Cc1ccccc1Cl)c1ccccc1`, the survival was inactive: 97%.
For the molecule `O=c1c2c3c(sc2ncn1CCn1cnc2sc4c(c2c1=O)CCCC4)CCCC3`, the survival was inactive: 88%.
As to `CCOC(=O)c1ccccc1NC(=O)c1cnn(-c2ccc(OC)cc2)c1C1CCN(C(=O)OC(C)(C)C)CC1`, the survival is inactive: 92%.
Consider `Cc1ccc2c(c1)c(=O)c1ccccc1n2CCCC(=O)Nc1ccc(Cl)cc1C`, for which the survival was active: 45%.
As to `CCOc1ccc(CNC(=O)c2cnc3c(C)cccn3c2=O)cc1`, the survival is inactive: 80%.
With `Cc1cccc(C)c1NC(=O)Cn1c(=O)n(Cc2ccccc2Cl)c(=O)c2cccnc21` the figure was inactive: 97%; with `Cc1ccc(-c2nc(S(=O)(=O)c3ccc(C)cc3)c(SCC(=O)c3ccccc3)o2)cc1`, inactive: 52%.
With `O=C(CN1CCOCC1)NNc1nc(-c2ccccc2)c2cc(Cl)ccc2n1`, the survival is inactive: 81%.
For `CCN(C(=O)CSc1nc2ccccc2n1Cc1ccccc1C#N)c1ccccc1`, the survival is inactive: 82%.
`CCOC(=O)c1ccc(NC(=O)CSc2nnc(-c3ccncc3)n2-c2ccccc2)cc1`: the survival was inactive: 83%.
Regarding `Cc1ccc2c(C)c(C(=O)NCC(c3ccc(Cl)cc3)N3CCOCC3)oc2c1` (centres undefined), the survival was inactive: 63%.
`COc1cc(NC(=O)C2CCN(c3nnc(C)c4c(C)n(-c5ccccc5)nc34)CC2)cc(OC)c1`: the survival is inactive: 87%.
With `Cc1ccc(NC(=O)NC(C)c2c(-n3cccc3)sc(C)c2C)cc1F` (centres undefined) the figure was inactive: 64%; with `Cc1ccc(-n2c(=O)[nH]c3cc(C(=O)NCCc4ccccc4)ccc3c2=O)cc1`, inactive: 83%.
